In PMC7005341 (Computational and Structural Biotechnology Journal, 2020):

Molecular target: the molecule itself
Assay: western blot of oligomer bands after SDS-PAGE

B1: sigma 1 receptor (σ1R), human, E102Q mutant, unmodified (receptor)
chain: not shown
B1 was tested, and the “stoichiometry N” value was 2.
